Test results: EP0027679B1, “Substituted-5-((7-chloro-4-quinolinyl)amino)-3-(amino-methyl)-(1,1'-biphenyl)-2-ol compounds; processes for their production; and pharmaceutical compositions containing the compounds” (WARNER-LAMBERT COMPANY, priority 1979, dated 1981)
The name of at least one read-out is uncertain.

Test system: normal drug-sensitive strain of Plasmodium berghei
Assay: Plasmodium berghei in mice, single subcutaneous dose 72 h post infection, mean survival time and cures
Format: in vivo
Details: Table II; for MST after single s.c. dose, mg/kg (extension of survival time over the controls): animals not cured, control MST 6.1-6.3 days; for MST after single s.c. dose, mg/kg: animals cured (C): five animal group
Procedure: Compounds of the invention were tested against a normal drug-sensitive strain of Plasmodium berghei in mice by the parenteral route by a procedure described in J. Med. Chem., 1043 (1967). The compounds were dissolved or suspended in sesame or peanut oil and were administered to mice in a single subcutaneous dose seventy-two hours post infection. Extension of the mean survival time of the treated mice is interpreted as evidence of anti-malarial activity. Compounds are arbitrarily considered to be "active" when they produce at least a 100 percent increase in the mean survival time of treated mice. Animals that survive to sixty days are considered "cured" (termed "C" in Tables I and II). The means survival time (MST) of infected control mice ranges from 6.1-6.3 days while the numbers in parentheses in Tables I and II indicate extension of survival time over the controls as an average for those animals of the five animal group not "cured".

SMILES	MST after single s.c. dose, mg/kg (extension of survival time over the controls) (5 mg/kg s.c.) [days]	MST after single s.c. dose, mg/kg (extension of survival time over the controls) (10 mg/kg s.c.) [days]	MST after single s.c. dose, mg/kg (extension of survival time over the controls) (20 mg/kg s.c.) [days]	MST after single s.c. dose, mg/kg (extension of survival time over the controls) (40 mg/kg s.c.) [days]	MST after single s.c. dose, mg/kg (extension of survival time over the controls) (80 mg/kg s.c.) [days]	MST after single s.c. dose, mg/kg: animals cured (C) (80 mg/kg s.c.)	MST after single s.c. dose, mg/kg (extension of survival time over the controls) (160 mg/kg s.c.) [days]	MST after single s.c. dose, mg/kg: animals cured (C) (160 mg/kg s.c.)	MST after single s.c. dose, mg/kg (extension of survival time over the controls) (320 mg/kg s.c.) [days]	MST after single s.c. dose, mg/kg: animals cured (C) (320 mg/kg s.c.)	MST after single s.c. dose, mg/kg: animals cured (C) (640 mg/kg s.c.)	MST after single s.c. dose, mg/kg: animals cured (C) (5 mg/kg s.c.)	MST after single s.c. dose, mg/kg: animals cured (C) (10 mg/kg s.c.)	MST after single s.c. dose, mg/kg: animals cured (C) (20 mg/kg s.c.)	MST after single s.c. dose, mg/kg: animals cured (C) (40 mg/kg s.c.)	MST after single s.c. dose, mg/kg (extension of survival time over the controls) (640 mg/kg s.c.) [days]
CC(C)(C)NCc1cc(Nc2cc[n+]([O-])c3cc(Cl)ccc23)cc(-c2ccc(Cl)c(Cl)c2)c1O [3—Cl, 4—Cl, NHC(CH3)3, 1]	0.5	2.9	5.9	12.0	23.2	1	25.9	1	25.9	3	5					
CC(C)(C)NCc1cc(Nc2cc[n+]([O-])c3cc(Cl)ccc23)cc(-c2ccc(Cl)cc2)c1O [4—Cl, H, NHC(CH3)3, 1, 4'-chloro-5-[(7-chloro-4-quinolinyl)aminoj-3-[[1,1-dimethylethyl)amino]methyl]-[1,1'-biphenyl]-2-ol-1-oxide]	10.3	26.3	28.9	24.9	20.6	2	13.4	3	13.9	4	4	1	1	4	4	13.9
CCN(CC)Cc1cc(Nc2cc[n+]([O-])c3cc(Cl)ccc23)cc(-c2ccccc2OC)c1O [2—OMe, H, N(Et)2, 1]			0.7	6.9	8.7		8.9	2	36.2	1	3					37.4
CC(C)(C)NCc1cc(Nc2ccnc3cc(Cl)ccc23)cc(-c2ccc(Cl)c(Cl)c2)c1O [3—Cl, 4—Cl, NHC(CH3)3, 0]	6.1	9.7	10.5	27.4	30.4	4	13.4	4	14.4	3	4			1	3	16.4
CCN(CC)Cc1cc(Nc2ccnc3cc(Cl)ccc23)cc(-c2cccc(C(F)(F)F)c2)c1O [3—CF3, H, N(Et)2, 0]	13.5	15.2	13.1	37.5	28.2	2	21.9	4	21.9	3	4		1		3	29.0
CCN(CC)Cc1cc(Nc2cc[n+]([O-])c3cc(Cl)ccc23)cc(-c2cccc(Cl)c2)c1O [3—Cl, H, N(Et)2, 1]	2.1	9.7	16.5	25.9	25.6	2		5	21.9	4	3				1	16.4
CCN(CC)Cc1cc(Nc2cc[n+]([O-])c3cc(Cl)ccc23)cc(-c2cccc(C(F)(F)F)c2)c1O [3—CF3, H, N(Et)2, 1]			6.9	8.1	11.7		21.1		24.9	1	4					27.9
CCN(CC)Cc1cc(Nc2ccnc3cc(Cl)ccc23)cc(-c2cccc(Cl)c2)c1O [3—Cl, H, N(Et)2, 0]	3.9	15.5	15.7	25.2	31.9	2	31.9	4		5	4				2	21.9
CCC(C)NCc1cc(Nc2ccnc3cc(Cl)ccc23)cc(-c2ccc(Cl)cc2)c1O (centres unmarked) [4—Cl, H, NHCHC2H5 | CH3, 0]	11.0	23.6	21.0	15.0	14.0	3	11.9	3	12.5	1	5			3	4	14.2
CCN(CC)Cc1cc(Nc2cc[n+]([O-])c3cc(Cl)ccc23)cc(-c2ccc(Cl)cc2)c1O [Example 1]		14.2	20.9	37.9		5		5		5	5		2	3	4	
CCN(CC)Cc1cc(Nc2ccnc3cc(Cl)ccc23)cc(-c2ccc(OC)cc2)c1O [4—OCH3, H, N(Et)2, 0]	0.1	2.9	4.3	10.0	12.4	1	16.1	2	28.9	3	5					
